The source of these data is PubChem BioAssay AID463173 (ICCB-Longwood Screening Facility, Harvard Medical School, 2010).

The campaign covered roughly 52,000 compounds. About 1,700 (3.3%) were called active. Cut-off read from the data, not from the text of the source: active = survival mostly below about 52% (no sharp cut-off); inactive = mostly above about 56%. This is one part of the list.

This assay concerns Wild type. As to the kind of experiment: growth inhibition of S. aureus wild type versus tarO mutant, primary screen, teichoic acid synthesis inhibitors, RN4220, OD600 (AID 463173). The note with it: S. aureus RN4220 wild type/DeltatarO growth, OD600, 18 h, active compounds read low, screened at 18.75 µg/mL (by protocol).
As to `CCN1C(C(=O)c2ccccc2)=C(OC(=O)COc2ccccc2)c2ccccc2S1(=O)=O`, the survival was inactive: 63%.
The figure for `Nc1c(-c2nc(-c3ccccc3)cs2)c2ccccn2c1C(=O)c1ccc2c(c1)OCO2` is inactive: 84%; for `O=C(O)CC(NS(=O)(=O)c1ccc(Br)s1)c1ccccc1` (stereo unspecified) it is inactive: 85%.
For `CCOc1ccc(NC(=O)Cn2cc(C(=O)c3ccc(C)cc3)c(=O)c3cc4c(cc32)OCCO4)cc1`, the survival is inactive: 128%.
The result for `COc1ccc(-n2c(C)nc3cc(C(=O)NC4CCCC4)ccc32)cc1` reads inactive: 73%; that for `Cc1ccc(N2CCN(S(=O)(=O)c3ccc4oc(=O)c5ncn(C)c5c4c3)CC2)c(C)c1`, inactive: 121%; that for `CC(C)OCCCN(C)C1CCN(S(=O)(=O)c2csc(C(N)=O)c2)CC1`, inactive: 81%.
The figure for `CCOCCCNC(=O)Nc1cc(C(=O)NCc2ccc(C(C)C)cc2)ccc1N1CCCC1` is inactive: 68%; for `Cc1ccc2nc(NC(=O)C(C)C)sc2c1` it is inactive: 127%.
The figure for `CC(=O)c1ccc(C(=O)N(Cc2cccnc2)c2nc3c(Cl)cccc3s2)cc1` is inactive: 119%; for `Cc1cccc(-c2nnc(SCC(=O)N3CCCc4ccccc43)o2)c1` it is active: 5%.
In the case of `CSc1cccc(NC(=O)Cn2nc(C)c3sc4ccccc4c3c2=O)c1`, the survival is inactive: 81%.
The figure for `COc1cc2c(cc1OC)C(COc1ccc(F)cc1)N(C(=O)c1ccccc1F)CC2` (stereo unspecified) is inactive: 78%; for `Cc1cc(C)cc(NC(=O)C2CCN(c3cc(C)nc4c(-c5ccc(Cl)cc5)c(C)nn34)CC2)c1` it is inactive: 87%.
Regarding `CCC1SC(C)C/C(=N\O)C1C` (stereo unspecified), the survival was inactive: 95%.
For the compound `Cc1ccc(S(=O)(=O)c2nnn3c2nc(NCc2cccs2)c2sccc23)cc1C`, the survival is inactive: 60%.
In the case of `COC(=O)C(C)NC(=O)N1CCN(c2nnc(C)c3c(C)n(-c4ccc(Cl)cc4)nc23)CC1` (stereo unspecified), the survival is inactive: 73%.
Regarding `Cn1nnnc1SCCNCc1ccccc1OCc1ccc(Cl)cc1Cl`, the survival is inactive: 56%.
As to `Cc1cccc(CS(=O)(=O)c2ncc(Cl)c(C(=O)Nc3nc4ccc(F)cc4s3)n2)c1`, the survival is active: 7%.
The figure for `COc1ccc(-c2noc(Cn3c(=O)c4ccccc4n(CC(=O)Nc4cccc(C(F)(F)F)c4)c3=O)n2)cc1` is inactive: 73%.
The figure for `O=C(Cc1ccc(F)cc1)NCCc1csc(-c2cccc(F)c2)n1` is inactive: 69%; for `CC(C)NC(=O)N1CCC(N2CCN(Cc3ccc(F)cc3)C(=O)C2=O)CC1` it is inactive: 70%; for `CCOc1ccc(N(CC)S(=O)(=O)N2CCCC(C(=O)NCc3ccc(Cl)cc3)C2)cc1` (stereo unspecified) it is inactive: 78%.
The result for `O=S(=O)(Nc1cccc(-c2ccc(N3CCCCCC3)nn2)c1)c1ccccc1` reads active: 1%; that for `CCOC(=O)c1[nH]c(Cc2[nH]c(C(=O)OCC)c(C)c2CC(=O)OC)c(CCC(=O)OC)c1C`, inactive: 113%.
For `COC(=O)c1ccc(C(=O)O)s1`, the survival is inactive: 98%.
For `Cn1cnnc1SC1CCCCC1NS(=O)(=O)c1ccc(Cl)cc1` (stereo unspecified), the survival is inactive: 103%.
In the case of `O=C(c1cccc(Cl)c1)N(Cc1ccco1)Cc1ccccc1Cl`, the survival was inactive: 49%.
As for `CCc1nc2onc(C)c2c(=O)n1CC(=O)O`, the survival was inactive: 88%.
Turning to `Cc1ccccc1-c1nc(CS(=O)(=O)CC(=O)Nc2cccc(C(F)(F)F)c2)c(C)o1`, the survival is inactive: 116%.
Regarding `COc1ccc2c(c1)c1c(c(=O)n(Cc3ccccc3)c(=O)n1CC(=O)Nc1c(C)cccc1C)n2C`, the survival was inactive: 81%.
The result for `Cc1ccc(S(=O)(=O)NCCc2sc3nc(-c4ccccc4)nn3c2C)cc1C` reads inactive: 64%.
As for `CC(C)(C)c1ccc(OCCCC(=O)N2CCOCC2)cc1`, the survival was inactive: 102%.
The figure for `Cc1oc(-c2cccc(Br)c2)nc1Cn1c(=O)cc(-c2ccccc2)c2c(C)nn(C)c21` is inactive: 78%; for `O=C(Cn1c(=O)n(-c2ccc(F)cc2)c(=O)c2sc3ccccc3c21)NC1CCCCC1` it is inactive: 91%; for `CCOC(=O)c1ccc2c(c1)N(Cc1cccc(C(F)(F)F)c1)C(=O)c1ccccc1S2(=O)=O` it is inactive: 73%.
The result for `CCCOc1ccc(Nc2cc(C)nc(C)n2)cc1` reads inactive: 82%; that for `CCOc1ccc2nc(NCCNC(=O)C3CCCCC3)c(C#N)cc2c1`, inactive: 113%; that for `COc1ccc(N2CCN(Cc3cc(=O)oc4ccc(OC)cc34)CC2)cc1`, inactive: 85%.
`CCc1ccccc1Nc1cc(C(=O)NCCc2ccccc2)c2ccccc2n1`: the survival is inactive: 148%.
The result for `COc1ccccc1NC(=O)C1=C(C)Nc2nc3ccccc3n2C1c1cccc(Br)c1` (stereo unspecified) reads inactive: 93%.
The result for `COc1ccc(Cn2c(=O)[nH]c3cc(C(=O)N4CCN(c5ccccc5)CC4)ccc3c2=O)cc1` reads inactive: 124%; that for `Cc1ccc(CNC(=O)CCC(=O)N2Cc3ccccc3Oc3ncccc32)cc1`, inactive: 73%.
The result for `COc1ccc(OC)c(CCNc2nccn(-c3ccc(C)c(C)c3)c2=O)c1` reads inactive: 73%; that for `O=C(NCC(c1cccnc1)N1CCOCC1)C(=O)Nc1ccc(F)cc1` (stereo unspecified), inactive: 86%; that for `Cn1c(SCc2cccc(F)c2)nc2c([nH]c3ccccc32)c1=O`, inactive: 129%.
Regarding `CCCn1ccc2c(OCC(=O)Nc3ccccc3OCC)cccc2c1=O`, the survival was inactive: 99%.
With `O=C(Nc1ccc2nc(SCC(=O)N3CCCc4ccccc43)sc2c1)c1cccc(Cl)c1`, the survival is inactive: 91%.
The result for `COc1ccc(CCNC(=O)C2CCN(c3nc4ccccc4nc3C(F)(F)F)CC2)cc1OC` reads inactive: 81%; that for `COc1ccc(C(=O)Oc2c(Sc3ccccc3)c(C)nn2-c2ccccc2)cc1OC`, inactive: 65%; that for `CN(C(=O)c1ccc(Br)cc1)C1CCCCC1`, inactive: 110%.
The result for `Cc1ccc(NC(=O)CN2C(=O)CSc3ccc(S(=O)(=O)N4CCCC4)cc32)c(C)c1` reads inactive: 98%; that for `O=C(NC1CSCC1=O)c1ccccc1` (stereo unspecified), inactive: 108%.
The result for `COCCCNS(=O)(=O)c1ccc(N2CCCCS2(=O)=O)cc1` reads inactive: 76%; that for `COc1ccc(NC(=O)C2=C(C)C(=O)OC23CCN(C(C)C)CC3)cc1Cl`, inactive: 77%.
On to `Cc1ccccc1NC(=O)CSc1nc2ccc(NC(=O)c3ccccc3)cc2s1`, for which the survival was inactive: 72%.
The figure for `CC1CCC(Nc2ncnc3onc(-c4ccc(Cl)cc4)c23)CC1` (stereo unspecified) is inactive: 60%; for `COc1ccc(-c2coc3c2c(C)cc2oc(=O)c(C)c(C)c23)cc1` it is inactive: 74%; for `CC(=O)OCc1cnc(C)c2oc(=O)c(C(=O)Nc3ccc(C)cc3Cl)cc12` it is inactive: 121%.
The figure for `CCCOC(=O)C(N)c1ccccc1` (stereo unspecified) is inactive: 110%; for `COc1ccc(-c2sccc2C(C)C(=O)O)cc1` (stereo unspecified) it is inactive: 111%.
With `Cc1cc(C)cc(C(=O)Nc2ccc(N3CCN(S(C)(=O)=O)CC3)cc2)c1`, the survival was inactive: 123%.
With `Cc1ccc(CNC(=O)c2oc3ccc(S(=O)(=O)N4CCC(C)CC4)cc3c2C)cc1`, the survival was inactive: 74%.
On to `CCCCN1C(=O)CN(C2CCCCCC2)C(=O)C1c1ccc(OC(C)C)c(OC)c1` (stereo unspecified), for which the survival was inactive: 129%.
The result for `COc1ccc(C(=O)n2nc(C)cc2C)cc1` reads inactive: 111%; that for `Cc1cccc(OCC(=O)Nc2ccc3nc(Nc4cccc(C(F)(F)F)c4)cc(C)c3c2)c1`, inactive: 95%; that for `COc1ccccc1CNC(=O)c1ccc2c(c1)N(Cc1cc(C)ccc1C)C(=O)c1ccccc1S2`, inactive: 74%.
The figure for `CC(C)(O)c1cc(=O)sc2nc3ccccc3n12` is inactive: 99%.
The result for `CCCCNC(=O)c1cc2c(=O)n3cccc(C)c3nc2s1` reads inactive: 145%.
As for `CCCn1cnc2c1c(=O)n(C)c(=O)n2C`, the survival was inactive: 106%.
With `O=C(CCc1ccccc1)Nc1nccs1`, the survival is inactive: 103%.
For the compound `Cc1nnc(NCc2ccco2)s1`, the survival was inactive: 107%.
The result for `CCOc1ccc(NC(=O)Cn2cc(C(=O)c3ccc(F)cc3)c(=O)c3cc4c(cc32)OCCO4)cc1` reads inactive: 89%.
The figure for `COc1ccc(-c2cc(C(F)(F)F)n3nc(C(=O)O)c(Cl)c3n2)cc1OC` is inactive: 70%; for `Cc1ccc(-n2ncc(C(=O)N3CCN(Cc4ccccc4)CC3)c2C2CCN(C(=O)OC(C)(C)C)CC2)cc1` it is inactive: 124%; for `CC(=O)c1cc(-c2ccccc2)n(CCC(=O)Nc2ccc(C(C)C)cc2)c1C` it is inactive: 128%.
As for `Cc1ccc(-n2ccnc(NCCc3ccc(S(N)(=O)=O)cc3)c2=O)c(C)c1`, the survival was inactive: 81%.
The figure for `COc1ccc(NC(=O)Cn2cnc3ccc(S(=O)(=O)N4CCC(C)CC4)cc3c2=O)cc1Cl` is inactive: 158%.
For `CC(=O)Nc1ccc(C2=CSC3=NCCN23)cc1`, the survival is inactive: 89%.
For `CC(C)(C)OC(=O)N1CCC(c2c(C(=O)NCCN3CCCC3)cnn2-c2ccc(Cl)cc2)CC1`, the survival is inactive: 71%.
As for `CCOc1ccc(/C=C/c2nc(C#N)c(NC3CCCCC3)o2)cc1`, the survival was inactive: 78%.
As for `Cc1oc(-c2ccc(C(=O)NCc3ccc(F)cc3)cc2)nc1CS(=O)c1ccccc1` (stereo unspecified), the survival was inactive: 68%.
The figure for `Cc1cc(C)cc(C(=O)Nc2c(C(=O)Nc3ccccc3F)oc3ccccc23)c1` is inactive: 22%; for `CC(=O)c1cc2c(cc1N/C(=N/S(=O)(=O)c1ccccc1)c1ccc(Cl)cc1)OCO2` it is active: -2%; for `COc1ccccc1-c1nnc(SCC(N)=O)o1` it is inactive: 84%.
The result for `CC(C)c1ccc(NC(c2nnc(-c3ccccc3)o2)c2ccc(F)cc2Cl)cc1` (stereo unspecified) reads inactive: 69%; that for `CCN(CC)CCNC(=O)c1ccc(-c2nc(CS(=O)(=O)c3ccc(C)cc3)c(C)o2)cc1`, inactive: 72%; that for `COc1ccccc1OCCn1c(C(C)Oc2ccccc2)nc2ccccc21` (stereo unspecified), inactive: 76%.
With `COc1ccc(CNC(=O)C2CCN(c3nnc(-n4cccc4CNc4ccc(C)cc4)s3)CC2)c(OC)c1`, the survival is inactive: 80%.
The figure for `Cc1ccccc1-n1c(=O)c2c3c(sc2n2cnnc12)CCCC3` is inactive: 79%; for `Cc1ccc(S(=O)(=O)c2nc(-c3cccc(C)c3)oc2N2CCCCC2)cc1` it is active: 2%.
